From paper PMC12109561, “LPS2336, a New TREK-1 Channel Activator Identified by High Throughput Screening” (Biomolecules, 2025)

Legend:
[1] = target: T1, hTREK-1 (Homo sapiens, UniProt O95069); conditions: 10 µM
T1 sequence (O95069 1-422 isoform O95069-3): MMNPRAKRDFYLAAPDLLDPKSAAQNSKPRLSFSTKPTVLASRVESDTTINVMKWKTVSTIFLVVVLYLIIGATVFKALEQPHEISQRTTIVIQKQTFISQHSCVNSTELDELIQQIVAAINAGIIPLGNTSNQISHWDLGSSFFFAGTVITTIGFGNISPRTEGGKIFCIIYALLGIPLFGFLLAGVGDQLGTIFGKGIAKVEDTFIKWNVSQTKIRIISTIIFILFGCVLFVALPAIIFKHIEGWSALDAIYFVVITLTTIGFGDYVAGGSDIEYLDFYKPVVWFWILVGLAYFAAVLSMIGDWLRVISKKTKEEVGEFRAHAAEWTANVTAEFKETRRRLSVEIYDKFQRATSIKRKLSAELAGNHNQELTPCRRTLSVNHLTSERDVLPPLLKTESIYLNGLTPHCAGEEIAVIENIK

[2] = test system: CD1 mice; assay: Horizontal bar test in CD1 mice; assay type: in vivo, mouse; conditions: i.p. 50 mg/kg, 15 min before the test
From the text: A 13 cm long, 2 mm diameter metal bar was placed horizontally between 2 rods at a 30 cm height. To evaluate the general wakefulness of animals, and reveal a potential sedative effect of tested compounds, mice were lifted by the tail and placed close to the bar so that they naturally grab it with both forepaws. After gently releasing the tail, the time taken by mice to climb on the bar (grabbing it with their four paws) was monitored.
To search for possible adverse effects induced by LPS2336 in vivo, we submitted CD1 mice to different confounding tests aiming at characterizing motor coordination, balance, muscle strength and spontaneous locomotor activity. […] To assess the contribution of TREK-1 to this adverse effect, we submitted TREK-1 knock-out mice (which are of the C57Bl6/J background) to the same test, 15 min following the injection of 50 mg/kg LPS2336. […] We finally submitted the mice to a third test consisting in observing their spontaneous locomotion in an open arena (open field test). […] Finally, we monitored the body temperature of mice for 45 min after intraperitoneal injection of LPS2336 at 40 mg/kg and could observe hypothermia in both WT and TREK-1 KO (−2.4 and −2.6 °C, respectively) following LPS2336 treatment (Figure 7F,G).

Compound	fluorescence (ΔFmax/F0) in HEK-hTREK-1 cells [1]	time to climb on horizontal bar [2]
c1ccc(-c2nn[nH]n2)c(Nc2cccc3c2CCCC3)c1 [BL-1249, reference compound]	strong increase in fluorescence	
N#CCN1CCC(Cc2ccccc2)CC1 [LPS2336]		took longer to climb
